We go through 172 sequences from publication PMC6212790.

The other results are listed elsewhere or left out. At the low end of the ranking, values are background and their order means little.

The target in the experiment is T1, GST-Rok-C97-191 (UniProt O34857).
T1 sequence: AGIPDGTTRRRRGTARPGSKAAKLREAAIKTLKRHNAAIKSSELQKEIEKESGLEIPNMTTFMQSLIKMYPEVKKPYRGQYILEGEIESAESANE
Nature of the experiment: protein binding microarray.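 Also: rank score from −0.5 (least bound) to 0.5 (best bound).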 The conditions noted are these: Rok is a gene silencer of Bacillus subtilis; high values mean tight binding; most listed sequences are background and not binding sites; double strand, one strand shown.
In the case of AAGAAACC, the binding signal was 0.103 E-score.

ATTAGGGG: the binding signal is -0.168 E-score. In the case of ATCAACGA it was -0.0076 E-score; in that of ATTGAAAC, -0.0273 E-score. Take AGATACCT: the binding signal was 0.182 E-score.

CTTTACAA returned a binding signal of 0.143 E-score. In the case of ATGGGGTC it was -0.301 E-score; in that of ACGCCCAA, -0.122 E-score; in that of CAAGGACC, -0.267 E-score. The figure for CCATTTCA is -0.0132 E-score; for AGAGACAC it is -0.0235 E-score; for AAACATTG it is 0.0181 E-score. As for AATCACAA, the binding signal was 0.147 E-score. The figure for ACTTCCGA is 0.0551 E-score. Sequence GTATGACA had a binding signal of -0.0829 E-score.

For the sequence AATCTGAT, the binding signal was 0.00651 E-score. The figure for ACGCACAT is 0.134 E-score; for ACTTTTCA it is 0.113 E-score; for CGTTAGGA it is -0.0542 E-score. Turning to GCCACTAC, the binding signal stood at 0.0368 E-score.

CAAATTCC returned a binding signal of -0.0496 E-score. As to ACATTCAC, the binding signal is -0.000613 E-score. In the case of TCAGCGAA it was -0.101 E-score; in that of AACGGAAA, 0.0543 E-score. In the case of ACTCTAAG it was -0.214 E-score; in that of CCGCAATA, 0.0938 E-score; in that of CAGCGGCC, -0.346 E-score. In the case of GTAGTTGA it was 0.217 E-score; in that of AGAGCGTG, -0.00588 E-score; in that of GCAGTAAC, 0.16 E-score. As for CGGTCCCC, the binding signal is -0.469 E-score. GAAGAGCC gave a binding signal of -0.202 E-score. GCTTGTCA gave a binding signal of -0.0768 E-score. The figure for ACGTCAAG is -0.0669 E-score; for ATTAGGTA it is 0.222 E-score; for AGCTTTAC it is 0.0944 E-score.

Sequence GCACTGCA yielded a binding signal of 0.0712 E-score. The figure for ATTTGGAC is -0.0118 E-score; for AATGGGTC it is -0.0773 E-score.

With ACCTATAG, the binding signal was 0.268 E-score. Sequence AAACACTA yielded a binding signal of 0.194 E-score. The figure for ATGCTTTC is 0.00474 E-score. The sequence CCTCCCCA returned a binding signal of -0.376 E-score. In the case of GAAAAGCA it was 0.0881 E-score.

GTTCGGCA gave a binding signal of 0.04 E-score. In the case of AAGCTCTA it was 0.0126 E-score; in that of ACAGCTGA, 0.085 E-score. On to GCAAGTCA, for which the binding signal is -0.00141 E-score. The sequence CAGATGCG registered a binding signal of -0.144 E-score.

CGGCAACA showed a binding signal of 0.00477 E-score. The figure for GCCAGGGA is -0.203 E-score.

With GTTCAAAA, the binding signal was -0.0057 E-score.

Take ATAGTTTG: the binding signal is 0.366 E-score. In the case of CAGAAGGA it was -0.186 E-score; in that of CGCTCTAC, -0.0294 E-score. In the case of CATATCGG, the binding signal amounted to 0.0167 E-score.

In turn, AGCATTTC showed a binding signal of -0.0617 E-score. The figure for AGATACCG is 0.171 E-score; for CATCAGGC it is -0.14 E-score; for TATAGAGA it is 0.15 E-score. In the case of GAAAAATC it was -0.0901 E-score; in that of ATAATGGA, 0.0889 E-score; in that of ATTTCAAG, 0.0112 E-score. Regarding AAGCTATC, the binding signal stood at 0.241 E-score. The sequence AGACAGCG yielded a binding signal of -0.0757 E-score. In the case of GGACGCCA it was -0.169 E-score; in that of CCACAGCG, -0.181 E-score; in that of GCTCCGAA, -0.109 E-score. In the case of CGCGTGCA it was -0.0435 E-score. The sequence AATAGAAT had a binding signal of 0.318 E-score. CCGAGAGA: the binding signal was -0.0879 E-score. The figure for CGCGAGAG is -0.135 E-score; for ACCCAACT it is 0.22 E-score; for AATTGGCC it is -0.155 E-score.

In turn, ACTCTACA registered a binding signal of 0.108 E-score. Sequence CAAGCTCC showed a binding signal of -0.0901 E-score.

The sequence ACTAACCA displayed a binding signal of 0.0601 E-score. In the case of TGCCCGCA it was -0.0332 E-score; in that of ATCCTCAC, -0.197 E-score. As to CTAACCAG, the binding signal is -0.00926 E-score.

On to ACATCTGA, for which the binding signal is 0.247 E-score. The figure for CCCCAGAA is -0.248 E-score; for CCTTCAGA it is -0.274 E-score. Sequence ATCGCTGC had a binding signal of 0.00433 E-score. Regarding CAAAGTAC, the binding signal was -0.0306 E-score. As for GCATCGAC, the binding signal came out at 0.00759 E-score. With AACAGGGC, the binding signal is -0.197 E-score.

Regarding CGCCGGAG, the binding signal was -0.109 E-score. In the case of GAGCCCCA it was -0.312 E-score; in that of GACCAGAA, -0.0288 E-score; in that of CTGTAGTC, 0.103 E-score. The figure for CGCCCAAG is -0.243 E-score; for CGATCCAA it is -0.0118 E-score; for CAATGAAC it is -0.11 E-score. The figure for GCGAGTGA is -0.116 E-score; for AGCGACGG it is -0.135 E-score.

On to ATACATAC, for which the binding signal amounted to 0.338 E-score. In the case of CATCTTAC it was 0.168 E-score; in that of TAAGCCTA, -0.156 E-score. In the case of GACGCGCA it was -0.24 E-score. For the sequence ACGGGCTG, the binding signal is -0.124 E-score. In the case of AGATGGAA it was -0.144 E-score. Sequence CCGCCTGA showed a binding signal of -0.202 E-score.

Sequence ATATAATA came in with a binding signal of 0.446 E-score. The figure for ATCCGAAT is 0.0824 E-score. In the case of CCATTGAC it was -0.042 E-score. In the case of CGCTGGGC it was -0.304 E-score; in that of CAGATTAC, -0.0715 E-score. Consider CCGTGCCA, for which the binding signal was -0.205 E-score. The figure for CACAGTTC is 0.177 E-score; for GAGAGTGA it is -0.0704 E-score; for AGAGAAGG it is -0.195 E-score. CTCTAACA gave a binding signal of 0.0111 E-score. Turning to ACGGAGAT, the binding signal was determined as 0.0377 E-score. CAGGTAAC registered a binding signal of 0.0142 E-score.

Turning to CGTTAGAA, the binding signal is 0.0172 E-score. On to ACTGTATG, for which the binding signal was found to be 0.149 E-score. In the case of GGAATTAA it was 0.172 E-score; in that of AGTTCCAA, -0.0246 E-score; in that of ACTTGGGC, -0.148 E-score. In the case of AATGTGCT it was 0.0613 E-score; in that of AAGGCTTG, -0.177 E-score. In the case of CCGCCCAG it was -0.329 E-score; in that of CTACCGAA, 0.257 E-score. Take ATCCAAAC: the binding signal is 0.00297 E-score.

For the sequence CTCAGGAA, the binding signal is -0.0257 E-score. The figure for ATTTATCC is 0.138 E-score; for CTAGGTAC it is 0.132 E-score; for TAGGAAGA it is 0.212 E-score. Regarding GGGTAGCA, the binding signal was -0.148 E-score.

For the sequence ATCTTTAC, the binding signal turned out to be 0.21 E-score.

AAGAAGGT returned a binding signal of -0.0263 E-score. The figure for AGAAACGC is 0.0486 E-score. The figure for CACACTAC is 0.16 E-score; for GCCCCTTA it is -0.453 E-score; for ACGATTTA it is 0.216 E-score. In the case of AGTTTCCC it was 0.14 E-score; in that of AAACTACC, 0.473 E-score; in that of AATAATTA, 0.318 E-score. Take TCCTGAGA: the binding signal is -0.0446 E-score. The sequence ATCACCGG came in with a binding signal of -0.025 E-score. Regarding ATTTAAAG, the binding signal was -0.0376 E-score. The figure for AGTACGTG is 0.101 E-score; for GGAGACCA it is -0.0113 E-score.

Sequence AATTCTCA came in with a binding signal of 0.0734 E-score. As for GGCTTTCA, the binding signal was -0.292 E-score. CTAGATTC displayed a binding signal of 0.166 E-score. The figure for CGTACAAG is -0.00507 E-score; for GCCTAACA it is -0.0272 E-score; for CTTCTACA it is 0.273 E-score.

As to AGGGCGGA, the binding signal is -0.315 E-score. The figure for CGCGCCCC is -0.341 E-score. The figure for ACGTGTGA is -0.16 E-score; for GACCTTAA it is 0.0334 E-score; for ACCTACTC it is 0.0493 E-score. The figure for CTCCTCTC is -0.174 E-score.

As for TGGCTAAA, the binding signal is 0.112 E-score. For GACAGGGA, the binding signal is -0.0489 E-score. GGTGAGAC showed a binding signal of -0.087 E-score. Sequence GGAACGGA showed a binding signal of -0.249 E-score. The figure for GGAGTAAA is 0.000261 E-score.

For AAGTTAGC, the binding signal came to 0.139 E-score.

For the sequence CTTTGTCC, the binding signal is -0.101 E-score. In the case of CAATCATC it was -0.103 E-score; in that of GAGTTCGC, -0.172 E-score.

As for ACTATAAG, the binding signal came to 0.249 E-score.

On to CGCGCTAG, for which the binding signal turned out to be 0.0524 E-score. For the sequence TATAACCA, the binding signal worked out at 0.293 E-score. For the sequence CATGTCTC, the binding signal was -0.0561 E-score. In the case of AAACCTCT it was 0.121 E-score; in that of AACGACGG, -0.0673 E-score; in that of AGCAGGGG, -0.19 E-score.
